Data: publication PMC10476561
Results are given in words; binding and its absence hold for the method and conditions named. Binding seen in cells or lysates may run through a third protein. Some results given as binding are weak or reduced against the parent protein; the word gives no strength. For part of these data: Tags and fused reporters may be left off the sequences shown.

The chains behind the UniProt entries cited, without tags or fusion partners.
UniProt P49736: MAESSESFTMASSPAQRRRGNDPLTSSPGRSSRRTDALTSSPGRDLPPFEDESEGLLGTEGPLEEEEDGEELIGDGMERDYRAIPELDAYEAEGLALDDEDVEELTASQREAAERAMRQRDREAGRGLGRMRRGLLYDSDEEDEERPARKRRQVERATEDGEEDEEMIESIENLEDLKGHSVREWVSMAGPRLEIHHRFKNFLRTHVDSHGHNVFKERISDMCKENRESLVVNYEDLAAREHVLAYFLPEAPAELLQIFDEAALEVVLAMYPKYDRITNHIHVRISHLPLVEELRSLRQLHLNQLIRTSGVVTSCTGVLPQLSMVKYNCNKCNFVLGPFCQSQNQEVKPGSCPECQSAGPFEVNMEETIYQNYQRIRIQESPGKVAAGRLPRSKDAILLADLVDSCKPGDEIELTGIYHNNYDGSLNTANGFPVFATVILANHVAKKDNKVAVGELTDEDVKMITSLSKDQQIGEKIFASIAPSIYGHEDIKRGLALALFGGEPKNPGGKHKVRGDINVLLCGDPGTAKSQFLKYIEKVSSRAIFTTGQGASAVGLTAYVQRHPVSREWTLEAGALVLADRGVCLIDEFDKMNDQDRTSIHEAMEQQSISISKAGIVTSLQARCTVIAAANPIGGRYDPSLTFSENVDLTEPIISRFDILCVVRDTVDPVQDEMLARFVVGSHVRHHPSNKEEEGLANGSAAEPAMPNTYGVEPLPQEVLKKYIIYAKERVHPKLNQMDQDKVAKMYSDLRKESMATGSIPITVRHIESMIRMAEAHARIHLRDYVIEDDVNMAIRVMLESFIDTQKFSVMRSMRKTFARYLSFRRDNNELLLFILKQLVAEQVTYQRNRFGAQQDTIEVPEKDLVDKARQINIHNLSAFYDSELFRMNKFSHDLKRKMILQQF
UniProt Q05086: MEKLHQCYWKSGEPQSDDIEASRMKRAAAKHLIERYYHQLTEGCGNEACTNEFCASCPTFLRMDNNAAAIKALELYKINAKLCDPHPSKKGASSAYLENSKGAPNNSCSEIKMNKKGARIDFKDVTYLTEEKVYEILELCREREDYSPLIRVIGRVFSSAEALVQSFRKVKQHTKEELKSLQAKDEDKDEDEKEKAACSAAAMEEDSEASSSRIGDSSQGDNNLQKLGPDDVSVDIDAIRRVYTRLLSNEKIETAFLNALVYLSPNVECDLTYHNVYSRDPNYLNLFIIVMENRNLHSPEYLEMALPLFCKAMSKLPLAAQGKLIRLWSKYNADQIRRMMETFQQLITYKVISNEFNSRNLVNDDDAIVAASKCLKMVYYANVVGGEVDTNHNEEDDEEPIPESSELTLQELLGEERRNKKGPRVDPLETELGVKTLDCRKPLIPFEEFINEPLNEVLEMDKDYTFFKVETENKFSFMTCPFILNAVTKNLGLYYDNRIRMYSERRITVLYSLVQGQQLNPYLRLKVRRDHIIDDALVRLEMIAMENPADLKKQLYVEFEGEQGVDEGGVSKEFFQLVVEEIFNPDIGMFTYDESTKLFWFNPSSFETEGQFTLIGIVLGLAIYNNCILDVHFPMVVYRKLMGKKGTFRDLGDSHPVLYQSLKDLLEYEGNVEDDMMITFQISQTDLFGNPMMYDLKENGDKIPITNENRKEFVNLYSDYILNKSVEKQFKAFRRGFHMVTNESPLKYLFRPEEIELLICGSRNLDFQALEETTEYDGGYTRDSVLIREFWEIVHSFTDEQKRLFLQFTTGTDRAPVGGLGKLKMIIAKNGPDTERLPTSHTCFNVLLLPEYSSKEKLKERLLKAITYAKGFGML

What was measured:
Experiment in all cases: co-IP; HEK293T cotransfected with E6AP-HA and MCM2/4/6-Flag; lysis in 50 mM Tris-Cl, 150 mM NaCl, 5 mM EDTA, 1% NP-40, pH 7.8; anti-Flag affinity gel overnight at 4 °C; blots with anti-Flag and anti-HA
MCM4-Flag = molecular target: T1, MCM4-Flag (UniProt P33991)
T1 sequence: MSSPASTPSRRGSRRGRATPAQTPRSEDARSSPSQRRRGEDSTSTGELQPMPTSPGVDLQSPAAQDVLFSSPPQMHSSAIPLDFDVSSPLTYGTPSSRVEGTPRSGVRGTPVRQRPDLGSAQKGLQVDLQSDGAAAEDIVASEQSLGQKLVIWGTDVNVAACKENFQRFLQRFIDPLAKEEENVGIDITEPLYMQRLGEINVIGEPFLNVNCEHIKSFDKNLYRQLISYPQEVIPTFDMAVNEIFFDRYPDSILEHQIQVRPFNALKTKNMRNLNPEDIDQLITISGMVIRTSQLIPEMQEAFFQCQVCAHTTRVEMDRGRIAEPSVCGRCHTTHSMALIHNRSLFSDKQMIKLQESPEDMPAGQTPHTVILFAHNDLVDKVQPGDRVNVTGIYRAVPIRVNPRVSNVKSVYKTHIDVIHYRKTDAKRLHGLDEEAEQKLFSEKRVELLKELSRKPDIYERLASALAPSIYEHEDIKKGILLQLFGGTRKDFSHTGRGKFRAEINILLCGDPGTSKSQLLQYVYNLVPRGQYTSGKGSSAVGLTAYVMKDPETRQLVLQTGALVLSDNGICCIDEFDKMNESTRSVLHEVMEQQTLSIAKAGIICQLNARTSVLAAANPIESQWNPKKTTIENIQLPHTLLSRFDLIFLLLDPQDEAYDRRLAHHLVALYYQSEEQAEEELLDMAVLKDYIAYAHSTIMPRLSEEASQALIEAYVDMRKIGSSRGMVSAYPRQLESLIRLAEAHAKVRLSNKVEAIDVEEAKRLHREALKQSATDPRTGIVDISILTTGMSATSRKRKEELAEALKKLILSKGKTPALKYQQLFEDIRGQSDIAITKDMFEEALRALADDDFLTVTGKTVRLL

MCM2-Flag = MCM2-Flag (UniProt P49736)
MCM6-Flag = molecular target: T2, MCM6-Flag (UniProt Q14566)
T2 sequence: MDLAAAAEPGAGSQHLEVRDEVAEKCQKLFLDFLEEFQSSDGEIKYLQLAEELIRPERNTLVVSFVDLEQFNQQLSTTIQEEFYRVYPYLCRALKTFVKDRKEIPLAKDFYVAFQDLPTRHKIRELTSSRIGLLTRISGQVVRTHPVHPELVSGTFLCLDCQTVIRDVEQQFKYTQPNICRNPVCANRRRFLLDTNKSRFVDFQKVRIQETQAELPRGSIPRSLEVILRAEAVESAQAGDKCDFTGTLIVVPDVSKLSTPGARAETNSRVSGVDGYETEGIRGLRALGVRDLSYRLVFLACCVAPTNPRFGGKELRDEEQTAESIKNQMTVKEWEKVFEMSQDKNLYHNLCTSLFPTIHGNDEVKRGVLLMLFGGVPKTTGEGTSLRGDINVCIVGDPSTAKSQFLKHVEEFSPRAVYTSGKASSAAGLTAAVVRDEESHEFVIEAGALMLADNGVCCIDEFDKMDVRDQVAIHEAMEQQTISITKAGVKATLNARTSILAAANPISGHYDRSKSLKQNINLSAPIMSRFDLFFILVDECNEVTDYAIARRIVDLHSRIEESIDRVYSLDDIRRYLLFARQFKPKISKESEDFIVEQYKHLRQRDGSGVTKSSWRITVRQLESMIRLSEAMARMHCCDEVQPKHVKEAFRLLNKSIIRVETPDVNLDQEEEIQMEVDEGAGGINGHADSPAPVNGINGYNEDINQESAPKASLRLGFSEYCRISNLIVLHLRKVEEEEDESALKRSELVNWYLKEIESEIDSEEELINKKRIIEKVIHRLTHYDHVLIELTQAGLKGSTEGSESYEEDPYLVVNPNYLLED

Measured: binding

E6AP-HA (from UniProt Q05086 1-875) (enzyme)
binds: all assays above
